# Experimental data taken from article PMC7459111.
# By UniProt entry, the sequences of proteins in these tests, tags left out. Residues count along the entry.
# UniProt Q03265, residues 44-553: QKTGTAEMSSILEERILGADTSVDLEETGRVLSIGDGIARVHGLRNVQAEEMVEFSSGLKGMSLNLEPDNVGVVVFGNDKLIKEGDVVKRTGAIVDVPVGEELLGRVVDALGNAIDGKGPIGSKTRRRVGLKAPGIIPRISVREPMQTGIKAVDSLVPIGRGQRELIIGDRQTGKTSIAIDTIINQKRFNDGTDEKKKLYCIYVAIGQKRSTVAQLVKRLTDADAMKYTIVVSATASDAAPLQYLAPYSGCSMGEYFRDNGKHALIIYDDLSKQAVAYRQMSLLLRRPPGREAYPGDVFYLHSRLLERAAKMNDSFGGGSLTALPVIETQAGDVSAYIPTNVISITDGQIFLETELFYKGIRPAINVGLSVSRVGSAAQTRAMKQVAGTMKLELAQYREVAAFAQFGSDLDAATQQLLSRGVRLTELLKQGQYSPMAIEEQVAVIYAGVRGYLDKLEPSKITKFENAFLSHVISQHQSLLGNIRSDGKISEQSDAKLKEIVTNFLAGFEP
# These are yes or no findings as the source states them, for the method shown. In cells and extracts the contact can be indirect. Some entries that bind do so weakly or less than the wild type.
# B1: regulator of G-protein signaling 12 (RGS12) (protein, UniProt Q8CGE9 1-1381)
# chain: MYRAGEPGKRQPGPAPPRVRSVEVARGRAGYGFTLSGQAPCVLSCVMRGSPADFVGLRAGDQILAINEINVKKASHEDVVKLIGKCSGVLHMVIAEGTSHVESCSSDEEGGLYEGKGWLRPKLDSKALGINRAERVVEEVQSGGIFNMIFESSSLCASGPEPLKLKQRSLSESAALRLDAGQAGLCAPHPSMLSKEDISKVINDDSVFTVGLDSHDDFGLDASILNVAMVVGYLGSIELPSTSSNLEHDSLQAIRGCMRRLRAEQKIHSLVTMKVMHDCVQLVTDRAGVVAEYPAEKLAFSAVCPDDRRFFGLVTMQTNDDGGLAQEDEGALRTSCHVFMVDPDLFHHKIHQGIARRFGFACTADPDTSGCLEFPASSLPVLQFISVLYRDMGELIEGVRARAFLDGDADAHQNNSTSSNSDSGIGNFNQEEKSNRVLVVDLGGGSSRHGQGSSPGWESGGGRGSQPWSAPWNGAFCHDSEAGSPLETSPNTDRFWDLTKHSGPVSHMEVPPATLRSSIPPSKRGAAGSSCGFNQRWLPVHVLQEWQCGHASDQESYTDSTDGWSSVNCGTLPPPMSKIPADRYRVEGSFAQAPLSTQKRDWSRKAFGMQNLFGPHRNVRKTKEDKKSSKLGRGVALAQTSQRTSARRSFGRSRRFSITRSLDDLESATVSDGELTGADLKDCISNNSLSSNASLPSVQSCRRLRERRVASWAVSFERLLQDPVGVRYFSDFLRKEFSEENILFWQACECFSHVPAHDKKELSYRAREIFSKFLCSKATTPVNIDSQAQLADDILNAPHPDMFKEQQLQIFNLMKFDSYTRFLKSQLYQECVLAEVEGRTLPDSQQVPSSPASKHSISSDHSNVSTPKKLSGKSKSGRSLNEDVGEEDSEKKRRGAFFSWSRSRSTGRSQKKKDHGDHAHDAPHANGGLCRRESQGSVSSAGSLDLSEACRTSALEKDKAAKHCCVHLPDGTSCVVAVKSGFSIKEILSGLCERHGINGAAVDLFLVGGDKPLVLHQDSSILATRDLRLEKRTLFRLDLVPINRSVGLKAKPTKPVTEVLRPVVAKYGLDLGSLLVRLSGEKEPLDLGAPISSLDGQRVILEERDPSRGKVSTDKQKGAPVKQNSAVNSSPRNHLAMGEERTLGKSNSIKIRGENGKSARDPRLSKREESIAKIGKKKYQKINLDEAEEFFELISKAQSNRADDQRGLLRKEDLVLPEFLRLPAGSSELALSSPPPVKGYSKRAVTGHGQEGAAQTEESYSDSPATSPASAQSPCSAYSPGSAHSPGSAHSTPGPPGTTQPGEKPTKPSCVSMVQEGTTQAWRRLSPEMEAGGIQTVEDEQVADLTLMGEGDISSPNSTLLPPPPTPQDTPGPPRPGTSRF
# B2: UQCRC2 (protein, UniProt Q9DB77 15-453)
# chain: SLKVAPKVKTSAAPGGVPLQPQDLEFTKLPNGLVIASLENYAPLSRIGLFVKAGSRYEDSNNLGTSHLLRLASSLTTKGASSFKITRGIEAVGGKLSVTATRENMAYTVEGIRSDIEILMEFLLNVTTAPEFRRWEVAALRSQLKIDKAVAFQNSQTRIIENLHDVAYKNALANPLYCPDYRMGKITSEELHYFVQNHFTSARMALVGLGVSHSVLKQVAEQFLNMRGGLGLAGAKAKYRGGEIREQNGDNLVHAAIVAESAAIGNAEANAFSVLQHLLGAGPHIKRGNNTTSLLSQSVAKGSHQPFDVSAFNASYSDSGLFGIYTISQAAAAGEVINAAYNQVKAVAQGNLSSADVQAAKNKLKAGYLMSVETSEGFLSEIGSQALAAGSYMPPSTVLQQIDSVADADVVKAAKKFVSGKKSMAASGNLGHTPFLDEL
# B3: SDHB (protein, UniProt Q9CQA3 31-282)
# chain: AQTAAAAAPRIKKFAIYRWDPDKTGDKPRMQTYEVDLNKCGPMVLDALIKIKNEVDSTLTFRRSCREGICGSCAMNINGGNTLACTRRIDTDLSKVSKIYPLPHMYVIKDLVPDLSNFYAQYKSIEPYLKKKDESQEGKQQYLQSIEDREKLDGLYECILCACCSTSCPSYWWNGDKYLGPAVLMQAYRWMIDSRDDFTEERLAKLQDPFSVYRCHTIMNCTQTCPKGLNPGKAIAEIKKMMATYKEKRALA
# Key:
# [1] = molecular target: ATP Synthase F1 Subunit Alpha (ATP5A) (mouse (endogenous in mouse chondrocytes)) (UniProt Q03265); test: co-IP; chondrocyte mitochondrial extracts incubated with antibody to ATP5A or a nonspecific isotype-matched IgG; immunoprecipitates probed for RGS12
# [2] = molecular target: T1, regulator of G-protein signaling 12 (RGS12) (mouse (endogenous in mouse chondrocytes)) (UniProt Q8CGE9); test: co-IP; cell lysates of mouse chondrocytes (NP-40 buffer) incubated with anti-RGS12 or control IgG, protein A/G beads; bound protein blotted with the OXPHOS antibodies
# T1 sequence: B1 chain
Binder,binding [1],binding [2]
B1,binds,
B2,,no binding
B3,,no binding
